Test results: PubChem BioAssay AID1508623 (National Center for Advancing Translational Sciences (NCATS), 2021)
Among all 48,000 compounds or so, about 450 (0.94%) were called active. Another 19% or so got no clear call; they are omitted. The call rests on the fitted dose curve; in most records, active means well fitted inhibition curve with a large enough effect; inconclusive means small, poorly fitted or top-dose-only effect; inactive means no such curve, though single readings can be large or run the other way. The list shows a part of the results.

assay: Primary qHTS for Identification of Small Molecule Inhibitors of Huntingtin Promoter Activity; conditions: HEK293 HTT promoter firefly luciferase reporter (activity 0% = vehicle and -100% = no light), 24 h; activity change, negative = inhibition: at the top concentration; further: nearly all actives have a fitted effect of over 50% in size
Method in brief: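 HEK293 luciferase promoter-reporter cells (2,500/well) plated 24 h, then compounds added at up to 57.5 uM final for 24 h at 37 °C. Firefly luminescence by Dual-Glo, normalized to vehicle (0%) and zero RLU (-100%).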

Compound	activity change, negative = inhibition
Cc1ccccc1OCC(=O)N1CCN(CCc2ccccn2)CC1	inactive: -13.1% [at 11.5 µM]
CC1=C2[C@H]3OC(=O)[C@@H](C)[C@@H]3CC[C@@]2(C)C=CC1=O	inactive: -3.22%
O=[N+]([O-])c1c2ccccc2cc2ccccc12	inactive: 27.8% [at 116 µM]
CC(=O)Nc1ccc(OC[C@](C)(O)C(=O)Nc2ccc([N+](=O)[O-])c(C(F)(F)F)c2)cc1	inactive: -15.9%
COc1ccc2c3c1O[C@H]1[C@H](O)CC[C@H]4[C@@H](C2)N(C)CC[C@@]341	inactive: -12.7% [at 116 µM]
O=c1c2ccccc2nc(/C=C/c2ccccc2F)n1-c1cccc(O)c1	inactive: -4.12%
CCc1nc(SC)ncc1C(=O)Nc1ccc(Cl)cc1C(=O)c1ccccc1	inactive: -13.6%
Cc1cccc(-c2nn3c(=O)cc(CN4CCN(C(=O)COc5ccc(Cl)cc5)CC4)nc3s2)c1	inactive: -12.1%
CC(C)=CCN1CC[C@@]2(C)c3cc(O)ccc3C[C@@H]1[C@@H]2C	inactive: -7.32% [at 116 µM]
CC(C)(C)NCC(O)c1cc(Cl)c(N)c(Cl)c1 (stereo unspecified)	inactive: 5.54%
CC(N[C@H]1C[C@H]1c1ccccc1)c1ccc2c(c1)OCCO2 (stereo partly specified)	inactive: 6.29%
C=C(C)[C@H]1Cc2c(ccc3c2O[C@@H]2COc4cc(OC)c(OC)cc4[C@@H]2C3=O)O1	inactive: -39.4%
CN(C)c1ccc(NC(=O)c2sc3nc4c(cc3c2N)N2CCC4CC2)cc1	inactive: -6.53%
COC(=O)C1=CCCN(C)C1	inactive
O=C(NC(=O)c1c(F)cccc1F)Nc1cc(Cl)c(OC(F)(F)C(F)C(F)(F)F)cc1Cl (stereo unspecified)	inactive: -8.06%
CNCC(=O)c1ccc(O)c(O)c1	inactive: -6.65%
COc1ccc(OCC(=O)N2CCN(CCc3ccncc3)CC2)cc1	inactive: -3.95%
NC1=NC(=O)N2CC12 (stereo unspecified)	inactive: -2.75%
CCN(CC)C(=O)c1ccc(NC(=O)c2ccc(-c3nn(C)c(=O)c4ccccc34)cc2)cc1	inactive: -7.02%
CCC1(CC)C(=O)C=CNC1=O	inactive: 10.4%
COc1ccccc1C1SCC(=O)Nc2c1c(C)nn2-c1cccc(C)c1 (stereo unspecified)	inactive: -35.1%
COc1ccc(Cc2nccc3cc(OC)c(OC)cc23)cc1OC	inactive

Compound	activity change, negative = inhibition
CCCC12CN3CC(C)(CN(C1)C3c1c(C)[nH]c(=O)[nH]c1=O)C2=O (stereo unspecified)	inactive: -15.2%
COC(=O)[C@@H](N)CCCN=C(N)N[N+](=O)[O-]	inactive: -25.1%
O=C(N/N=C/c1ccc([N+](=O)[O-])o1)c1cc([N+](=O)[O-])cc([N+](=O)[O-])c1O	inactive: -1.57%
Cc1ccc(-c2nn3c(=O)cc(CN4CCN(C(=O)COc5ccc(C)c(C)c5)CC4)nc3s2)cc1	inactive: -13.9%
CCCC1=Nc2cc(C(=O)NCCCN(CC)CC)ccc2Sc2ccccc21	inactive: -9.7%
CCc1ccc(OCC(=O)N2CCN(CCc3ccncc3)CC2)cc1	inactive: -7.2%
CC1NCCOC1c1ccccc1 (stereo unspecified)	inactive: -8.33%
CCCN1CCC[C@@H]2Cc3[nH]ncc3C[C@H]21	inactive: 7.98%
C#CC(O)(C=CCl)CC (stereo unspecified)	inactive: 14.7%
COc1cc(CCN)cc(OC)c1OC	inactive: -13.7% [at 116 µM]
C[C@@H]1O[C@@H](O[C@H]2C[C@@H](O)[C@]3(CO)[C@H]4[C@H](O)C[C@]5(C)[C@@H](C6=CC(=O)OC6)CC[C@]5(O)[C@@H]4CC[C@]3(O)C2)[C@H](O)[C@H](O)[C@H]1O	inactive: -38.9%
CCCN1CCO[C@@H]2c3cc(O)ccc3OC[C@@H]21	inactive: -0.399%
COc1cccc2c1C(=O)c1c(O)c3c(c(O)c1C2=O)C[C@@](O)(C(=O)CO)CC3OC1CC(N2CCOC(OC)C2)C(O)C(C)O1 (stereo partly specified)	inactive: -33.4%
O=C(O)CCCCCCNC1c2ccccc2CCc2ccccc21	inactive: -6.88%
COP(=S)(OC)Oc1ccc(S(N)(=O)=O)cc1	inactive: -3.64%
CCOc1ccc2nc(NC(=O)c3cccn(Cc4ccccc4Cl)c3=O)sc2c1	inactive: 2.08%
CCOc1ccc(CN(CCc2ccc3c(c2)OCO3)Cc2ccc(OC)c(Br)c2)cc1	inactive: -22.3%
Cc1nc2ccccc2c(=O)n1-c1ccccc1Cl	inactive: -18.2% [at 116 µM]
[N-]=[N+]=CC(=O)OC[C@H](N)C(=O)O	inactive: 4.63%
CCN(CC)Cc1nccn1-c1ccc([N+](=O)[O-])cc1C(=O)c1ccccc1Cl	inactive: -5.61%
CNC(C)Cc1ccc2c(c1)OCO2 (stereo unspecified)	inactive: 3.06% [at 116 µM]
CN(C)C(=O)Oc1cc(OC(=O)N(C)C)cc(C(O)CNC(C)(C)C)c1 (stereo unspecified)	inactive: -2.32%

Compound	activity change, negative = inhibition
NCCc1ccc(O)cc1	inactive: 8.87%
Cc1ccc(C(C)C)c(OCC(=O)N2CCN(CCc3ccncc3)CC2)c1	inactive: -16.2%
C[C@@H]1[C@H](O)[C@@H](C)C=CC=CCCC=CC=CC=CC=C[C@H](O[C@H]2O[C@@H](C)[C@H](O)[C@@H](N)[C@@H]2O)CC2O[C@](O)(C[C@@H](O)[C@H](O)CC[C@@H](O)C[C@@H](O)C[C@@H](O)CC(=O)O[C@H]1C)C[C@H](O)[C@H]2C(=O)O	inactive: 7.9%
C[C@@H](N)[C@@H](O)c1ccccc1	inactive: 14.6%
CCC1(c2ccc(N)cc2)CCC(=O)NC1=O (stereo unspecified)	inactive
ClC1=C(Cl)[C@]2(Cl)[C@@H]3[C@@H]4C[C@@H]([C@H]5O[C@@H]45)[C@@H]3[C@@]1(Cl)C2(Cl)Cl	inactive: 1.58% [at 116 µM]
Cc1ccc(C(=O)Nc2ccccc2)cc1S(=O)(=O)N1CCCC1	inactive: -19%
O=C(O)c1ccc2[nH]cc(CCCCN3CC=C(c4ccccc4)CC3)c2c1	inactive: -4.3%
Cc1ccccc1-n1c(/C=C/c2ccc(N(C)C)cc2)nc2ccccc2c1=O	inactive: -21.9%
O=[N+]([O-])c1cc([As](=O)(O)O)ccc1O	inactive: 5.54%
O=C(c1ccc2c(c1)N(Cc1ccc(F)cc1)C(=O)c1ccccc1S2)N1CCC2(CC1)OCCO2	inactive: -3.86%
COc1ccc(OCC(=O)N2CCN(Cc3cc(=O)n4nc(-c5ccc(OC)cc5)sc4n3)CC2)cc1	inactive: -29.5%
Cc1ccc(OCC(=O)N2CCN(CCc3ccncc3)CC2)cc1	inactive: 6.19%
CC(C)c1ccc(OCC(=O)N2CCN(CCc3ccccn3)CC2)cc1	inactive: -15.8%
C[C@]12CC[C@@H]3c4ccc(OC(=O)N(CCCl)CCCl)cc4CC[C@H]3[C@@H]1CC[C@@H]2O	inactive: -7.98%
C[C@H]([C@H](O)CCC(C)(C)O)[C@H]1CC[C@@]2(O)C3=CC(=O)[C@@H]4C[C@@H](O)[C@@H](O)C[C@]4(C)[C@@H]3CC[C@]12C	inactive: -7.86%
CC1N=C(N)OC1c1ccccc1 (stereo unspecified)	inactive: -1.19% [at 116 µM]
Cc1ccc(OCC(=O)Nc2ccc(Cl)cc2C(=O)c2ccccc2)cc1C	inactive: -0.999%
COc1cccc(-c2nn3c(=O)cc(CN4CCN(C(=O)COc5ccccc5C)CC4)nc3s2)c1	inactive: -10.2%
CCCCCCCCc1ccc(O)cc1	inactive: 5.85% [at 116 µM]
Cc1nnc(NC(=O)c2cccn(Cc3cccc(F)c3)c2=O)s1	inactive: 0%
O=c1oc2ccccc2c(O)c1Cc1c(O)c2ccccc2oc1=O	inactive: 4.24%

Compound	activity change, negative = inhibition
CCSc1nnc(NC(=O)c2cccn(Cc3ccccc3Cl)c2=O)s1	inactive: 7.46%
CCOc1ccccc1NC(=O)c1cccn(Cc2ccccc2C)c1=O	inactive: -10.2%
O=C1CN2CCOC2(c2ccccc2Cl)c2cc(Cl)ccc2N1 (stereo unspecified)	inactive: -9.53%
COc1ccc(C(c2c(O)c3ccccc3oc2=O)c2c(C)n(C)n(-c3ccccc3)c2=O)cc1 (stereo unspecified)	inactive: -16.9%
Clc1ccc(CCC(Cn2ccnc2)Sc2c(Cl)cccc2Cl)cc1 (stereo unspecified)	inactive: -24.1%
CCC(=O)C(CCN(C)C)(c1ccccc1)c1ccccc1	inactive: -4.46%
CC(=O)c1cccc(NC(=O)c2cccn(Cc3cccc(C)c3)c2=O)c1	inactive: -20.7%
O=C(O)COc1ccccc1	inactive: 45.6%
CC(C)NC(C)C	inactive: 9.95%
O=c1[nH]c2ccccc2n1C1CCNCC1	inactive: 4.38%
NC(=O)CN1CCCC1=O	inactive: -3.62%
ClCCN1CCCC1	inactive: 3.02%
N[C@@H](Cc1ccc(Oc2cc(I)c(O)c(I)c2)c(I)c1)C(=O)O	inactive: 1.02%
COC(=O)C(Cl)C(=O)OC	inactive: -4.36%
Oc1ccc(Cl)cc1	inactive: 12.3%
CC(C)c1c(CN(C)C(C)Cc2ccccc2)n(C)n(-c2ccccc2)c1=O (stereo unspecified)	inactive: 5.22%
COc1ccc(NC(=O)CN2C(=O)C(C)N=C(c3ccccc3)c3ccccc32)cc1OC (stereo unspecified)	inactive: 4.9%
Cc1ccc(Cn2cccc(C(=O)Nc3nc4ccc(C)cc4s3)c2=O)cc1	inactive: -35.4%
O=P1(NCCCl)OCCCN1CCCl (stereo unspecified)	inactive
Cc1ccc(OCC(=O)Nc2ccc(Cl)cc2C(=O)c2ccccc2)c(Br)c1	inactive: 12%
O=S(=O)(c1ccc(Cl)cc1)c1ccc(Cl)cc1	inactive: -7.65% [at 116 µM]
O=C1CCC[C@@H]2[C@H]3CCCN4CCC[C@@H](CN12)[C@@H]34	inactive: 10.3%

Compound	activity change, negative = inhibition
O=C(Nc1ccon1)c1cccn(Cc2cccc([N+](=O)[O-])c2)c1=O	inactive: -14.4%
O=C(Nc1ccccc1)N(Cc1ccc2c(c1)OCO2)C1CCN(Cc2ccccc2)CC1	inactive: -15.9%
Cc1cccc(C)c1NC1=NCCCS1	inactive: -4.03%
O=C(Nc1ccc2c(c1)OCO2)c1cccn(Cc2ccccc2)c1=O	inactive: 15.4%
CCOC(=O)C1(c2ccccc2)CCN(CCc2ccc(N)cc2)CC1	inactive: -5.79%
CN1C(=O)COc2c(C(=O)NC3CN4CCC3CC4)cc(Cl)cc21 (stereo unspecified)	inactive
Cc1ccc(S(=O)(=O)N[C@@H](CCCCN)C(=O)CCl)cc1	inactive: 10%
O=C(Oc1ccc([N+](=O)[O-])cc1)N1CCC(C(O)(c2ccc3c(c2)OCO3)c2ccc3c(c2)OCO3)CC1	inactive: -6.54%
O=C1CN=C(c2ccccc2)c2cc([N+](=O)[O-])ccc2N1	inactive: -5.21%
CCOc1ccc2nc(NC(=O)c3cccn(Cc4ccc(C)cc4)c3=O)sc2c1	inactive: -35.2%
CC[N+]1(CCOC(=O)C(O)(c2ccccc2)c2ccccc2)CCCCC1	inactive: -3.5%
O=C(Nc1ccc2c(c1)OCCO2)c1cccn(Cc2ccccc2)c1=O	inactive: -15.6%
Cc1c(Cl)c(=O)oc2cc(OP(=O)(OCCCl)OCCCl)ccc12	inactive: -4.02%
Cc1ccc(-c2nc(CN3C(=O)CN=C(c4ccccc4Cl)c4cc(Cl)ccc43)c(C)o2)cc1	inactive: -39%
C[N+]1(C)[C@@H]2CC[C@H]1CC(OC(=O)C(CO)c1ccccc1)C2 (stereo partly specified)	inactive: 2.5%
Cc1cccc(Cn2cccc(C(=O)Nc3nnc(C)s3)c2=O)c1	inactive: -1.05%
Nc1ccccc1	inactive: 15.5%
O=C1CC(c2ccc(C(F)(F)F)cc2)c2c(c3ccccc3oc2=O)O1 (stereo unspecified)	inactive: -9.16%
